In the supplement of paper PMC12217912:
Some of the results follow. The full chains were built here from the parent and the listed change. Inactive controls read about 0.05.

B1: TEV protease; numbered along this chain (parent)
chain: MGESLFKGPRDYNPISSSICHLTNESDGHTTSLYGIGFGPFIITNKHLFRRNNGTLVVQSLHGVFKVKDTTTLQQHLVDGRDMIIIRMPKDFPPFPQKLKFREPQREERICLVTTNFQTKSMSSMVSDTSCTFPSGDGIFWKHWIQTKDGQCGSPLVSTRDGFIVGIHSASNFTNTNNYFTSVPKNFMELLTNQEAQQWVSGWRLNADSVLWGGHKVFMVKPEEPFQPVKEATQL

Variants of: B1
Test: raw area under fraction-flipped curve 0-4 h after induction (AUC4h, not background-subtracted), DNA-recorder readout of cleavage of the substrate (dimensionless); higher = more cleavage of the substrate by the protease variant
Settings: temperature: 34 °C; time window: 0-4 h after rhamnose induction
Method: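 In vivo DNA recorder in E. coli TOP10(DE3) ΔrhaA at 34 °C. Each TEVp single-site mutant (parent TEVp 0) is paired with a single-site variant of the 7-mer TEVs (canonical ENLYFQ|S). The substrate sits between flexible linkers in a Bxb1-sfGFP-TEVs-SsrA fusion, so cleavage stabilises Bxb1 and speeds flipping of a recombination array, read by NGS. The value is the raw area under the fraction-flipped curve over 0-4 h after rhamnose induction (AUC4h), with ≥20 reads per time point. It is not background-subtracted; inactive controls average about 0.047.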
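Also: Bxb1 expression induced with 0.2% (w/v) L-rhamnose at OD600 near 0.5, cultures sampled hourly, flipped fraction per protease–substrate barcode pair counted by paired-end Illumina sequencing.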

Variant | area with substrate ENLYFQA | area with substrate ENLYFQF | area with substrate ENLYFQG | area with substrate ENLYFQH | area with substrate ENLYFQL | area with substrate ENLYFQN | area with substrate ENLYFQR | area with substrate ENLYFQS | area with substrate ENLYFQT | area with substrate ENLYFQW | area with substrate ENLYFQY | area with substrate ENLYFQK | area with substrate ENLYFQM | area with substrate ENLYFQV | area with substrate ENLYFQC | area with substrate ENLYFQD | area with substrate ENLYFQE | area with substrate ENLYFQI | area with substrate ENLYFQP | area with substrate ENLYFQQ
MGESLFKGPRDYNPISSSICHLTNESDGHTTSLYGIGFGPFIITNKHLFRRNNGTLVVQSLHGVFKVKDTTTLQQHLVDGRDMIIIRMPKDFPPFPQKLKFREPQREERICLVTTNFQTKSMSSMVSDTSCTFPSGDGIFWKHWIQTKVGQCGSPLVSTRDGFIVGIHSASNFTNTNNYFTSVPKNFMELLTNQEAQQWVSGWRLNADSVLWGGHKVFMVKPEEPFQPVKEATQL [D149V] | 0.0772 | 0.0746 | 0.0795 | 0.0673 | 0.0459 | 0.0734 | 0.0643 | 0.0889 | 0.0658 | 0.058 | 0.0724 |  |  |  |  |  |  |  |  | 
MGESLFKGPRDYNPISSSICHLTNESDGHTTSLYGIGFGPFIITNKHLFRRNNGTLVVQSLHGVFKVKDTTTLQQHLVDGRDMIIIRMPKDFPPFPQKLKFREPQREERICLVTTNFQTKSMSSMVSDTSCTFPSGDGIFWKHWIQTKDQQCGSPLVSTRDGFIVGIHSASNFTNTNNYFTSVPKNFMELLTNQEAQQWVSGWRLNADSVLWGGHKVFMVKPEEPFQPVKEATQL [G150Q] | 0.0728 | 0.034 | 0.0557 |  | 0.0601 |  | 0.0631 | 0.0612 | 0.0599 |  |  | 0.0489 | 0.0536 | 0.0511 |  |  |  |  |  | 
MGESLFKGPRDYNPISSSICHLTNESDGHTTSLYGIGFGPFIITNKHLFRRNNGTLVVQSLHGVFKVKDTTTLQQHLVDGRDMIIIRMPKDFPPFPQKLKFREPQREERICLVTTNFQTKSMSSMVSDTSCTFPSGDGIFWKHWIQTKDPQCGSPLVSTRDGFIVGIHSASNFTNTNNYFTSVPKNFMELLTNQEAQQWVSGWRLNADSVLWGGHKVFMVKPEEPFQPVKEATQL [G150P] | 0.0614 | 0.0745 | 0.0608 | 0.0201 | 0.0541 | 0.0595 | 0.0442 | 0.0587 | 0.059 | 0.0683 | 0.0631 | 0.0487 | 0.0572 |  | 0.0529 | 0.0652 | 0.0637 | 0.0586 | 0.0625 | 
MGESLFKGPRDYNPISSSICHLTNESDGHTTSLYGIGFGPFIITNKHLFRRNNGTLVVQSLHGVFKVKDTTTLQQHLVDGRDMIIIRMPKDFPPFPQKLKFREPQREERICLVTTNFQTKSMSSMVSDTSCTFPSGDGIFWKHWIQTKDGQCGSPLVSTRYGFIVGIHSASNFTNTNNYFTSVPKNFMELLTNQEAQQWVSGWRLNADSVLWGGHKVFMVKPEEPFQPVKEATQL [D161Y] | 0.0661 |  | 0.0596 | 0.0693 | 0.059 | 0.0514 | 0.0558 | 0.0684 | 0.0478 | 0.0528 |  | 0.0477 | 0.054 | 0.0361 | 0.0629 | 0.0625 | 0.0397 | 0.0468 |  | 0.0557
MGESLFKGPRDYNPISSSICHLTNESDGHTTSLYGIGFGPFIITNKHLFRRNNGTLVVQSLHGVFKVKDTTTLQQHLVDGRDMIIIRMPKDFPPFPQKLKFREPQREERICLVTTNFQTKSMSSMVSDTSCTFPSGDGIFWKHWIQTKDGQCPSPLVSTRDGFIVGIHSASNFTNTNNYFTSVPKNFMELLTNQEAQQWVSGWRLNADSVLWGGHKVFMVKPEEPFQPVKEATQL [G153P] | 0.0487 |  |  |  | 0.0418 | 0.0511 | 0.0397 | 0.0491 |  | 0.0454 |  | 0.0644 | 0.0287 | 0.0449 | 0.0538 | 0.0493 |  | 0.0449 |  | 
MGESLFKGPRDYNPISSSICHLTNESDGHTTSLYGIGFGPFIITNKHLFRRNNGTLVVQSLHGVFKVKDTTTLQQHLVDGRDMIIIRMPKDFPPFPQKLKFREPQREERICLVTTNFQTKSMSSMVSDTSCTFPSGDGIFWKHWIQTKDGQCGSPLVSTPDGFIVGIHSASNFTNTNNYFTSVPKNFMELLTNQEAQQWVSGWRLNADSVLWGGHKVFMVKPEEPFQPVKEATQL [R160P] | 0.0772 |  | 0.0692 |  | 0.0549 |  | 0.0542 | 0.0829 | 0.0478 | 0.0611 | 0.0628 | 0.0552 | 0.0754 | 0.0406 | 0.0739 |  |  | 0.0569 |  | 0.0672
MGESLFKGPRDYNPISSSICHLTNESDGHTTSLYGIGFGPFIITNKHLFRRNNGTLVVQSLHGVFKVKDTTTLQQHLVDGRDMIIIRMPKDFPPFPQKLKFREPQREERICLVTTNFQTKSMSSMVSDTSCTFPSGDGIFWKHWIQTKDGQCGSNLVSTRDGFIVGIHSASNFTNTNNYFTSVPKNFMELLTNQEAQQWVSGWRLNADSVLWGGHKVFMVKPEEPFQPVKEATQL [P155N] | 0.0455 | 0.0426 | 0.0439 |  | 0.0473 | 0.0574 | 0.0429 | 0.0501 | 0.0441 | 0.0568 | 0.0471 | 0.0504 | 0.0414 | 0.0476 | 0.0557 |  |  | 0.0389 | 0.0556 | 0.0601
MGESLFKGPRDYNPISSSICHLTNESDGHTTSLYGIGFGPFIITNKHLFRRNNGTLVVQSLHGVFKVKDTTTLQQHLVDGRDMIIIRMPKDFPPFPQKLKFREPQREERICLVTTNFQTKSMSSMVSDTSCTFPSGDGIFWKHWIQTWDGQCGSPLVSTRDGFIVGIHSASNFTNTNNYFTSVPKNFMELLTNQEAQQWVSGWRLNADSVLWGGHKVFMVKPEEPFQPVKEATQL [K148W] | 0.0777 | 0.0883 | 0.01 | 0.0615 | 0.0646 | 0.0671 | 0.0625 | 0.0912 | 0.0579 | 0.067 |  | 0.0628 | 0.0828 | 0.0727 | 0.0869 |  |  | 0.0533 | 0.0598 | 0.0585
